Read counts are not given, so values of variants with three or more changes are uncertain.
B1: LINE1-full (parent)
chain: UACGUAGGUGGUUUUCCCCUGAUAGUGCUAAGGGGGCCUGGAAGUUUGGACUGGGCAGAGCUCAACACAGCGUGGCAAAGUGGCUGUGGCUAGACUGCCUCUCUGGAUUCCUCGUCACUCAGCAGGGCAUCUCUGAGAGAAAUGCC

Variants of: B1
Assay: self-cleavage, relative activity (ratio to wild type); higher = more cleavage; in vitro, sequencing; the parent is a self-cleaving ribozyme

Variant	self-cleavage
UACGUAGGUGGUGUUCCCCUGAUAGUGCUAAGGGGGCCUGGAAGUUUGGACAGGGCAGAGCUCAACACAGCGUGGCGAAGUGGCUGUGGCUAGACUGCCUCACUGGAUUCCUCGUCACUCAGCAGGGCAUCUCUGAGAGAAAUGCC [U13G U52A A77G U102A]	0.75
UACGUAGGUGGUUUUCCCCUGAUAGUGCUAAGGGGGCCUGGAAGUUUGGACUGGGCAGGGUUCAACACGGCGAGGCAAAGUGGCUGUGGCUAGACUGCCUCUCUGGAUUCCCCGUCACUCAGCAGGGCAUCUCUGAGAGAAGUGCC [A59G C61U A69G U73A U112C A142G]	0.26
UACGUAGGUGGUUUUCCCCUGAUAGUGCUGAGGGGGCCUGGAAGUUUGGACUGGGCAGAGCUCAACACAGCGUGGCAAAGUGGCUGUGGCUAGACUGCCUCUCUGGAUUCCUCGCCACUCAGCAGGGCAUCUCUGAGAGAAAAGCC [A30G U115C U143A]	2.51
UACGUAGGUGGUCCUCCCCUGAUAGUGCUAAGGGGGCCUGGAAGUUUGGACUGGGCAGAGCUCAACACAGCGUGGCAAAGUGGCUGUGGCUAGACUGCCUCUCUGAAUUCCUCGUCACUCAGCAGGGCAUCUCUGAGAGAAAUGCC [U13C U14C G106A]	1.58
UACGUAGGUGGUUUUCCCCUGAUUGUGCUAAGGGGGCCUGGAAGUUUGGACUGGGCAGAGCUCGACUCAGCGUGGCAAAGUGGCUGUGGCUAGACUGCCUCUCUGGAUUCCUCGUCACUCAGCAGGGCAUCUCUGAGAGAAAUGCC [A24U A64G A67U]	0.21
UACGUAGGUGGGUUUCCCCUGAUAGUGCUAAAGGGGCCUGGAAGUUUGGACUGGGCAGAGCUCAACACAGCGUGGCAAAGUGGCUGUGGCUAGACUGCCUCUCUGGAUACCUCGUCACUCAGCAGGGCAUCUCUGAGAGAAAUGCC [U12G G32A U109A]	0.88
UACGUAGGUGGUUUUCCCCUGAUAGUGCUAAGGGGGCCUGGAAGUUUGGACUGGGCGGAGCUCAACACAGCGUGGCAAAGUGGCUGUGGCUAGACUGCCUCUCUGGAUUCCCCGUCACUCAGCAGGUCAUCUCUGAGAGAAAUGCC [A57G U112C G127U]	0.47
UACGUAGGUGGUUUUCCCCUGAUAGUGCUAAGGGGGCCAGGAAGUUUGGACUGGGCAGAGCUCAACACGGCGUGGCAAAGUGGCUGUGGCUAGACUGCCUCUCUGGAUUCCUCGUCACUCAGCAGGGCAUCUCUGAGGGAAAUGCC [U39A A69G A138G]	0.53
UACGUAGGUGGUUUUCCCCUGAUAGUGCUAAUGGGGCCUGGAAGUUUGGACUGGGCAGAGCACAACACAGCGUGGCAAAGUGGCUGUGGCUAGACUGCCUCUCUGGAUUCCUCGUCACUCAGCAGGGCAUCUCUGAGAGAAACGCC [G32U U62A U143C]	0.02
UACGUGGGUGGUUUUCCCCUGAUAGUGCCAAGGGGGCCUGGAAGUUUGGACUGGGCAGAGCUCAACACAGCGUGGCAAGGUGGCUGUGGCUAGACUGCCUCUCUGGAUUCCUCGUCACUCAGCAGGGCAUCUCUGAGAGAGAUGCC [A6G U29C A79G A141G]	1.53
UACGUAGGUGGUUUUCCCCUGAUAGUGCUAAGGGGGCCUGGGAGUUUGGACUGGGCAGAGCUCAACACAGCGUGGCAAGGUGGCUGCGGCUAGACUGCCUGUCUGGAUUCCUCGUCACUCAGCAGGGCAUCUCUGAGAGAAAUGCC [A42G A79G U87C C101G]	1.84
UACGUAGGUGGUUUUCCCCUGAUAGUGCUAAGGGGGCCUGGGAGUUUGGACUGGGCAGAGCUCAACUCAGCGUGGCAAAGUGGCUGUGGCUAGACUGCCUCUCUGGAUUCCUCGUCACUCAGCAAGGCAUCUCUGAGAGAAAUGCC [A42G A67U G125A]	0.2
UACGUAGGUGGUUUUCCCCUGAUAGUGCUAAGGGGGCCUGGAAGUUUGGACUGGGCAGAGCCCAACACAGCGUGGCAAAGUGGCUGUGGCUAGACUGCCACUCUGGAUUCCUCGUCACUCAGCAGGGCAUCUCUGAGAGAAAGGCC [U62C U100A U143G]	0.05
UACGUAGGUGGUUCUCCCCUGAUAGUGCUAAGGGGGCCUGGAAGUUUAGACUGGGCAGAGCUCAACACAGCGUGGCAAAGUGGCUGUGGCCGGACUGCCUCUCUGGAUUCCUCGUCACUCAGCAGGGCAUCUCUGAGAGAAAUGCC [U14C G48A U91C A92G]	0.32
UACGUAGGUAGUUUUCCCCUGAUAGUGCUAAGGGGGCCUGGAAGUUUGGACUGGGCAGAGCUCAACACAGCGUGGCAAAGUGGCUGUGGCUAGACUGCCUCUCGGGAUUCCUCGCCACUCAGCAGGGCAUCUCUGAGAGAAAUGCC [G10A U104G U115C]	1.53
UACGUAGGUGGUUUUCCCCUGAUAGUGCUAAGGGGGCCUGGAAGUUUGGACUGGGCAGAGCUCAACACAGCGUGGCAAAGUGGCUGAGGCUAGACUGCCUCUCUGGAUUCCUCGUCACUCAGCGGGGCAUCUCAGAGAGAAAUGCC [U87A A124G U134A]	0.06
UACGCAGGUGGUUUUCCCCUGAUAGUGCUAAGGGGGCCUGGAAGUUUGGACUGGGCAGAGCUCAACACAGCGUGGCAGAGUGGCUGUGGCUAGACUGCCUCUCUGGAUUCCUCGUCACUCUGCAGGGCAUCCCUGAGAGAAAUGCC [U5C A78G A121U U132C]	2.34
UACGUAGGUGGUCUUCCCCUGAUAGUGCUAAGGGGGCUUGGAAGUUUGUACUGGGCAGAGCUCAACACAGCGUGGCAAAGUGGCUGUGGCCAGACUGCCUCUCUGGAUUCCCCGUCACUCAGCAGGGCAUCUCUGAGAGAAAUGCC [U13C C38U G49U U91C U112C]	0.22
UACGUAGGUGGUUUUCCCCCGAUAGUGCUAAGGGGGCCUGGAGGUUUGGACUGGGCAGAGCUCAACACAGCGUGGCAAAGUGGUUGUGGCUAGACUGCCUCUCCGGAUUCCUCGUCACUCAGCAGGGCAUCUCGGAGAGAAAUGCC [U20C A43G C84U U104C U134G]	0.29
UACGUAGGUGGUUUUCCCCUGAUAGUGCUAAGGGGGCCUGGAAGUUUGGACUGGGCAGAGCUCAACACAGCGUGGCUAAGUGGCUGGGGCUAGACUGCCUCUCUGGAUUCCUCGUCGGUCAGCAGGGCAUCUCUGAGAGGAAUGCC [A77U U87G A117G C118G A140G]	0.15

Variant	self-cleavage
UACGUAGGUGGUUUUCCCCUGAUAGUGCUAAGGGGGCCUGGAAGUUUGGACUGGGCAGAGCUCAACACAGCGUGGCAAAGAGGCUGUGGCUAGACUGCCCCUCUGGAUUCCUCGUCACUCAGCAGGGCAUCUCUGAGAGAAGUGCC [U81A U100C A142G]	2.9
UACGUAGGUGGUUUUCCCCUGAUAGUGCUAAGGGGCCCUGGAAGUUUGGACUGGGCAGAGCUCAACACAGCGUGGCAAAGUGGCUGUGUCUAGACUGCCUCCCUGGAUUCCUCGUCACUCAGCAGGGCAUCUCUGAGAGAAAUGCC [G36C G89U U102C]	0.03
UACGUAGGUAGUUUUCCCCUGAUGGUGCUAAGGGGGCCUGGAAGUUUGGACCGGGCAGAGCUCAACACAGCGUGGCAAAGUGGCUGUGGCUAGACUGCCUCUCUGGGUUCCUCGUCUCUCAGCAGGGCAUCUCUGGGAGAAAUGCC [G10A A24G U52C A107G A117U A136G]	2.63
UACGUAGGCGGUCUUCCCCUGAUAGUGCUAAGGGGGCCCGGAAGUUUGGACUGGGCAGAGCUCUACACAGCGUGGCAAAGUGGCUGUGGCUAGACUGCCUCUCUGGAUUCCUCGUCACUCAGCAGGGCAUCUCUGAGAGAAAUGCC [U9C U13C U39C A64U]	0.65
UACGUAGGUGGUUUUCCCCUGAUAGUGCUAAGGGGGCCUGGAAGUUUGGACUGGGCAGAGCUCGACACAGCGUGGCAAAGUGGCUGUGGCUAGACUGCCUCUCUGGACUCCUCAUCACUCAGCAUGGCAUCUCUGAGAGAAAUGCC [A64G U108C G114A G125U]	0.27
UACGUAGGUGGUUCUCCCCUGAUAGUGCUAAGGGGGCCUGGAAGUUUGGACUGGGCAGAGCUCAACACAGCGUGGCGGAGUGGCUGUGGCUAGGCUGCCUCUCUGGAUUCCUCGUCACUCAGCAGGGCAUCUCUGAGAGAAAUGCC [U14C A77G A78G A94G]	0
UACGUAGGUGGUUUUCCCCUGAUAGUGCUAAGGGGGCCUGGAAGUUUGGACUGGGCAGAGCUCAACACAGCGUGGCGAGGUGGCUGCGGCUAGACUGCCUCUCUGGAUUCCUCGUCACUCAGCAGGGCAUCUCUGAGAGAAGUGCC [A77G A79G U87C A142G]	0.42
UACGCAGGUGGUUUUCCCCUGUUAGUGCUAAGGGGGCCUGGAGGUUUGGACUGGGCAGAGCCCAACACAGCGUGGCAAAGUGGCUGUGGCUAGACUGCCUCUCUGGAUUCCUCGUCACUCAGCAGGGCAUCUCUGGGAGAAAUGCC [U5C A22U A43G U62C A136G]	0
UACGUAGGUGGUUUUCCCCUGAUAGUGCUAAGGGGGCCUGGAAGUUUGGACUGGGCAGAGCUCAACACAGCGAGGCAAGGCGGCUGUGGCUAGACUGCCUCUCUGGAUUCCUCGUCACUCAUCAGGGCAUCUCUGAGAGAAGUGCC [U73A A79G U81C G122U A142G]	1.42
UACGUAGGUGGUUUUCCCCAGAUAGUGCUAAGGGGGCCUGGAAGUUUGGACUGGGCAGAGCUCAACACAGCGUGGCAGAGUGGCUGUGGCUAGACUGCCUCUCUGGAUUCCUCGUCACUCAGCAGGGCACCUCUGAGAGAAAUGCC [U20A A78G U130C]	1.35
UACGUAGGCGGUUUUCCCCUGAUAGUGCUAAGGGGGCCUGGAAGUUUGGACUGGGCAGAGCUCAGCACAGCGUGGCAAGGUGGCUGAGGCUAGACUGCCUCUCUGGAUUCCUCGUCACUCAGCAGGGCAUCUCUGAGAGAAAUGCC [U9C A65G A79G U87A]	0.16
UACGUAGGUGGUUUACCCCUGAUAGUGCUAAGGGGGCCUGGAAGUUUGGACUGGGCAGAGCUCAACACAGCGCGGCAAAGUGGCUGUGGCUAGACUGCCCCUCUGGAUUCCUCGUCACUCAGCAGGGCAUCUCUGAGAGAAAUGCC [U15A U73C U100C]	0.61
UACGUUGGUGGUUCCCCCCUGAUAGUGCUAAGGGUGCCUGGAAGUUUGGACUGGGCGGAGCUCAACACAGCGUGGCAAAGUGGCUGUGGCUAGACUGCCUCUCUGGAUUCCUCGUCACUCAGCAGGGCAUCUCUGAGAGAAAUGCC [A6U U14C U15C G35U A57G]	1.37
UACGUAGGUGGUUUUCCCCUAAUAGUGCUAAGGGGGCCUGGAAGUUUGGACUGGGCAGAGCUCAACACAGCGUGGCGAAGUGGCUGUGGCUAGACUGCCUCUCUGGAUUCCUCGUCACUCAGCAGGGCGUCUCUGAGAGAAAUGCC [G21A A77G A129G]	2.51
UACGUGGGUGGUCUUCCCCUGAUAGUGCUAAGGGGGCCUGGAAGUUUGGACUGGGCAGAGCUCAACACAGCGUGGCAAAGUGGCUGUGGCUAGACUGCCUCUCUGGAUUCCUCGUCACUCAGCAGGGCAUCUCUGAGAGUAAUGCC [A6G U13C A140U]	1.12
UACGUAGGUGGUAUUCCCCUGAUAGUGCUAAGGGGGCCUGGAGGUUUGGACUGGGCAGAGCUCAACACAGCAUGGCAAAGUGGCUGUGGCUAGACUGCCUCUCUGGAUUCCUCGUCACUCAGCAGGGCAUCUCUGAGAGAAAUGCC [U13A A43G G72A]	0.38
CACGUAGGUGGGUUUCCCCUGAUAGUGCUAAGGGGGCCUGGAAGUUUGGACUGGGCAGAGCUCAACACAGCGUGGCAAAGUGGCUGUGGCUAGACUGCCUCUCUGGAUUCCUCGUCACUCAGCAGGGCGUCUCUGAGAGAAAUGCC [U1C U12G A129G]	1.46
UACGUAGGUGGUUUUCCCCUGAUAGUGCUAAGGGGGCCCGGAAGUUUGGACUGGGCAGAGCUCAACACAGCGCGGCAAAGUGGCUGUGGCUAGACUGCCUCUCUGGAUUCCUCGUCACUCAGCAGGGCAUCUCUGAGAGAGAUGCC [U39C U73C A141G]	1.7
UACGUAGGUGGUUUUCCCCUGAUAGUGCUAAGGGGGCCUGGAAGUUUGGACUCGGCAGAGCUCAACACAGCGUAGCAAGGUGGCUGUGGCUAGGCUGCCUCUCUGGAUUCCUCGUCACUCAGCAGGGCAUCUCUGAGAGGAAAGCC [G53C G74A A79G A94G A140G U143A]	0.07
